Experimental data as given in the supplement of paper PMC11417369.
This is one part of the list.

These sequences were tested on PfSIP2 AP2 domain 1 (GST-tagged) (assay: gcPBM binding intensity (ln(normalized median fluorescence intensity)); higher = stronger DNA binding).
Summary of the method: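 Binding intensity is defined as the maximum Masliner-normalised natural-log median intensity across replicate spots for either probe orientation. It was measured on an Agilent 4 × 180k array of primer-extended double-stranded 36-bp intergenic genomic probes and negative controls, to which GST-tagged P. falciparum DNA-binding domains made in E. coli were applied for 1 h in 1× PBS with 1% milk, 0.2 mg/ml BSA, 0.5% salmon testes DNA and 0.03% Triton X-100. Detection was by Alexa488 anti-GST antibody and scanning at 488 nm.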

Question: “CATATGTTCATCATAGCACACATATATAAATTACAA [CACACA_site9177]” was tested. Which “gcPBM binding intensity (ln)” value did it give?
Answer: The value was 7.03.

Question: “CACACCCACAGACACACACACACATATATATATATA [CACACA_site363]” was tested. Which “gcPBM binding intensity (ln)” value did it give?
Answer: Its value is 9.36.

Question: With “ATATATATATATATTTGTACATATATACATAAAATT [XGTACX_site359]” as the sequence, how does the “gcPBM binding intensity (ln)” value read?
Answer: The value was 9.23.

Question: With “GAAAAAGTTATAAATTGTACTAAATATTAAATATTG [XGTACX_site7890]” as the sequence, how does the “gcPBM binding intensity (ln)” value read?
Answer: The value was 6.77.

Question: Which “gcPBM binding intensity (ln)” value does the source give for “TTTAAAATGGGACTTTGAAAAAAAAAAAAAAAAACA [TGCATGCA_negctrl_site111]” here?
Answer: The value was 6.8.

Question: Which “gcPBM binding intensity (ln)” value does the source give for “CATATATATTTGTTCACACACACACCCAAAAAAAAA [CACACA_site2476]” here?
Answer: The value was 7.32.

Question: With “TATATATATATATATTGTACATAATGTATATATGTT [XGTACX_site3448]” as the sequence, how does the “gcPBM binding intensity (ln)” value read?
Answer: The value was 9.25.

Question: How did the “gcPBM binding intensity (ln)” value turn out when “TATAGGTATGTATGTACACACAAAAAATGGAATATA [CACACA_site7704]” was run?
Answer: Its value is 7.2.

Question: With “AAAAAAAAAAAAAGGTGTACATGCAAAATAAATTCT [XGTACX_site4592]” as the sequence, how does the “gcPBM binding intensity (ln)” value read?
Answer: Its value is 7.37.

Question: For “AAATAAATAAGAAACGCATGCATATATAATATATAA [TGCATGCA_site326]”, which “gcPBM binding intensity (ln)” value is on record?
Answer: Its value is 6.99.

Question: “TCCTCGCGTAATACTTTTCAAATAAAAAAAATAAAA [TGCATGCA_negctrl_site403]” was tested. Which “gcPBM binding intensity (ln)” value did it give?
Answer: Its value is 7.29.

Question: With “ATTAAAAATTAATATAAACACACAAAAATTAATAAA [CACACA_site8019]” as the sequence, how does the “gcPBM binding intensity (ln)” value read?
Answer: The value was 6.88.

Question: How did the “gcPBM binding intensity (ln)” value turn out when “TTTTTTTTTTTTTATTGTACTAGTAGATATATATAC [XGTACX_site3463]” was run?
Answer: Its value is 7.38.

Question: Which “gcPBM binding intensity (ln)” value does the source give for “GTGTCAAATTTTATAACACACAAAAGATTATATAAG [CACACA_site4086]” here?
Answer: Its value is 7.07.

Question: With “CCAATATATACATATATATAGTTATATATATTTCCT [TGCATGCA_negctrl_site38]” as the sequence, how does the “gcPBM binding intensity (ln)” value read?
Answer: Its value is 6.98.

Question: With “AAACATACTTGATGCAGTACACATTATAAGCACATA [XGTACX_site3359]” as the sequence, how does the “gcPBM binding intensity (ln)” value read?
Answer: Its value is 7.42.

Question: How did the “gcPBM binding intensity (ln)” value turn out when “GGACTTAAATAAAATGGTACAGAATTTATATATATT [XGTACX_site8214]” was run?
Answer: Its value is 6.83.

Question: Which “gcPBM binding intensity (ln)” value does the source give for “TAATGGAATACATATAGTACATAATATTACATACAT [XGTACX_site5737]” here?
Answer: The value was 6.94.

Question: “TTTTAAAAATTAAAAAAATTAAATGTAAAAAAATGA [CACACA_negctrl_site861]” was tested. Which “gcPBM binding intensity (ln)” value did it give?
Answer: Its value is 7.12.

Question: “ATATATGTATATGTGTGTACATATATGTTTATTATT [XGTACX_site6043]” was tested. Which “gcPBM binding intensity (ln)” value did it give?
Answer: The value was 7.11.

Question: With “TTTTTTTTTTTTTTTACACACAAATGTATACTATAT [CACACA_site1787]” as the sequence, how does the “gcPBM binding intensity (ln)” value read?
Answer: The value was 7.03.

Question: “TATTAAATATTCATATGTACATATAGTTTATAAATT [XGTACX_site7455]” was tested. Which “gcPBM binding intensity (ln)” value did it give?
Answer: Its value is 7.03.

Question: For “AAAACGGATTCTTTATAAATAAATAAATAAATATAA [XGTACX_negctrl_site157]”, which “gcPBM binding intensity (ln)” value is on record?
Answer: The value was 6.98.

Question: With “ATATATGTATGTTAGACACACATATTATAATATGTT [CACACA_site116]” as the sequence, how does the “gcPBM binding intensity (ln)” value read?
Answer: Its value is 6.98.

Question: With “AATACATACACAAATACACACACAAATACATACACA [CACACA_site8134]” as the sequence, how does the “gcPBM binding intensity (ln)” value read?
Answer: Its value is 7.18.

Question: How did the “gcPBM binding intensity (ln)” value turn out when “TTTATCAAAAAAAAAAAAAAAAAAAAAAAAAATTGT [CACACA_negctrl_site176]” was run?
Answer: The value was 6.83.

Question: How did the “gcPBM binding intensity (ln)” value turn out when “TATATGTTTTATAAATGTACATATACTTAAATATTT [XGTACX_site4753]” was run?
Answer: Its value is 7.

Question: How did the “gcPBM binding intensity (ln)” value turn out when TTATGTGCTTTAAAAGTGCATTTTTTTTTTTTTTTT was run?
Answer: Its value is 8.51.

Question: Which “gcPBM binding intensity (ln)” value does the source give for TTTTTTGTTATGCGGGTGCATATAATAATGTGATGA here?
Answer: Its value is 10.8.

Question: How did the “gcPBM binding intensity (ln)” value turn out when “TTATTTGTATCCATTTCACACATTTTATATAGTATC [CACACA_site5989]” was run?
Answer: The value was 7.15.

Question: How did the “gcPBM binding intensity (ln)” value turn out when “AATACATAATAACGTTGTACAAAAATTATAATACAT [XGTACX_site6508]” was run?
Answer: Its value is 7.24.

Question: How did the “gcPBM binding intensity (ln)” value turn out when “ACTATTAAGAATAAAGAAATATGTAATTGTATTTAA [CACACA_negctrl_site516]” was run?
Answer: Its value is 6.79.

Question: Which “gcPBM binding intensity (ln)” value does the source give for “TATAAATAAATGTGTACACACATTAAAATCAAACGT [CACACA_site2340]” here?
Answer: Its value is 7.13.

Question: “ATATATTTAATATTCACACATAATTATTTTTACTCT [CACACA_site5438]” was tested. Which “gcPBM binding intensity (ln)” value did it give?
Answer: The value was 7.05.

Question: How did the “gcPBM binding intensity (ln)” value turn out when “ATATAATGATAATATTGTACATGTTATATTTCAATA [XGTACX_site8645]” was run?
Answer: Its value is 6.94.

Question: “TATAGATAAGAATATGCACACATTTTATTTTTTTTT [CACACA_site1982]” was tested. Which “gcPBM binding intensity (ln)” value did it give?
Answer: Its value is 7.16.

Question: Which “gcPBM binding intensity (ln)” value does the source give for “TTGTAATATCTTGTCACACATATATATATATATATA [CACACA_site4937]” here?
Answer: Its value is 9.38.

Question: How did the “gcPBM binding intensity (ln)” value turn out when “TTTTTAATTTATTAAGAAGTAAAGAATAACTCTTTT [TGCATGCA_negctrl_site101]” was run?
Answer: Its value is 6.48.

Question: “AAACATTAAAATAACTCACACATTTTTCTAGTCTTC [CACACA_site4612]” was tested. Which “gcPBM binding intensity (ln)” value did it give?
Answer: Its value is 6.77.

Question: How did the “gcPBM binding intensity (ln)” value turn out when “GTATTATCTTTTAATAGTACATATTTTTTTGAAACA [XGTACX_site4050]” was run?
Answer: The value was 6.97.

Question: “AATATATTTTTATATTGTACAAAAGAAAAAAAATAT [XGTACX_site1689]” was tested. Which “gcPBM binding intensity (ln)” value did it give?
Answer: Its value is 7.15.

Question: With “CATATAATATTTGAAACTATATATAAATATAAGGTA [TGCATGCA_negctrl_site19]” as the sequence, how does the “gcPBM binding intensity (ln)” value read?
Answer: The value was 6.78.

Question: Which “gcPBM binding intensity (ln)” value does the source give for “AGTTTTCCATGTTAATGTACTTAACAATACCATAAT [XGTACX_site209]” here?
Answer: The value was 7.18.

Question: “ATTTATTCATAGACAACAAGAAAAAAAAAAAAAATT [CACACA_negctrl_site1168]” was tested. Which “gcPBM binding intensity (ln)” value did it give?
Answer: The value was 6.77.

Question: With “TATATCCATATTGTATGTACACATATAATACCAATG [XGTACX_site7230]” as the sequence, how does the “gcPBM binding intensity (ln)” value read?
Answer: The value was 6.97.

Question: How did the “gcPBM binding intensity (ln)” value turn out when “CATACATACAGACACACACACATATATATATATATA [CACACA_site2920]” was run?
Answer: The value was 9.55.

Question: Which “gcPBM binding intensity (ln)” value does the source give for “AACATAAAAATGAACATACACACATATATATATATA [CACACA_site2497]” here?
Answer: Its value is 9.39.

Question: With “ATAAAAATACAGTTAACACACATGTGGATATATATG [CACACA_site3771]” as the sequence, how does the “gcPBM binding intensity (ln)” value read?
Answer: The value was 7.19.

Question: “AAACAAAAAAGTAAGAAAAGGGATGATTGGATCCAA [CACACA_negctrl_site1230]” was tested. Which “gcPBM binding intensity (ln)” value did it give?
Answer: The value was 6.54.

Question: For “AGATATTATAATTAATGTACAAAAAGAAAAAATAGA [XGTACX_site8964]”, which “gcPBM binding intensity (ln)” value is on record?
Answer: The value was 7.04.

Question: “TATTATTCTGTATTTGCATGTGATCATATATATGTA [TGCATGCA_site1053]” was tested. Which “gcPBM binding intensity (ln)” value did it give?
Answer: The value was 7.

Question: “CATATGTATATGACTACACACAAGGGTGTACAGATA [CACACA_site4776]” was tested. Which “gcPBM binding intensity (ln)” value did it give?
Answer: Its value is 6.93.

Question: For “TATATAACATAATATACACACATTATGTGCGTAATT [CACACA_site4073]”, which “gcPBM binding intensity (ln)” value is on record?
Answer: The value was 6.89.

Question: For GTATATCATTTTGGGGTGCTTAAAAATAATGAATAC, which “gcPBM binding intensity (ln)” value is on record?
Answer: Its value is 9.07.

Question: “TTTTTTTTTTTTTATTGTACAAAGGTATAAAATAAT [XGTACX_site2396]” was tested. Which “gcPBM binding intensity (ln)” value did it give?
Answer: Its value is 7.18.

Question: With “GCGAGATGCTAAAATGCATGTTGGGCATTAGTTAAA [TGCATGCA_site586]” as the sequence, how does the “gcPBM binding intensity (ln)” value read?
Answer: Its value is 6.63.
